Reference: the supplement of paper PMC4604168 (melanoma cell lines)
This is one part of the list. Most values come without repeats; read them as rough.

test system: IPC-298; test: cell count relative to DMSO control; melanoma cells; higher = more viable cells; conditions: library dose: standard library concentration; 72 h; first compound 2 µM
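Also: cells treated in 1,536-well plates, then fixed and DAPI-stained, with nuclei counted from automated high-throughput microscope images.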

Structure (SMILES)	cell count [%]
C[C@@H](N)c1ccc(C(=O)Nc2ccnc3[nH]ccc23)cc1 + CCCCCCCCc1ccc(CCC(N)(CO)CO)cc1 [fingolimod] (partner dose 10 µM)	20.1
Cn1sc(=O)n(Cc2ccccc2)c1=O + C[C@]1(O)C[C@@H](c2nc(-c3ccc4ccc(-c5ccccc5)nc4c3)c3c(N)nccn32)C1 [OSI906] (partner dose 2 µM)	99.2
Cn1sc(=O)n(Cc2ccccc2)c1=O + NC(=O)c1ccc(N(C(N)=O)c2c(F)cccc2F)nc1-c1ccc(F)cc1F [VX702] (partner dose 2 µM)	101
C[C@@H](N)c1ccc(C(=O)Nc2ccnc3[nH]ccc23)cc1 + Cn1cnc2c(F)c(Nc3ccc(Br)cc3Cl)c(C(=O)NOCCO)cc21 [selumetinib] (partner dose 0.075 µM)	47.3
CCCCCCCCCCCCCCCCCCOP(=O)([O-])OC1CC[N+](C)(C)CC1 [Perifosine] + CC(C)C[C@H](NC(=O)[C@H](Cc1ccccc1)NC(=O)c1cnccn1)B(O)O [Bortezomib] (partner dose 0.005 µM)	7.93
C[C@@H](N)c1ccc(C(=O)Nc2ccnc3[nH]ccc23)cc1 + CNC(=O)c1cc(Oc2ccc(NC(=O)Nc3ccc(Cl)c(C(F)(F)F)c3)cc2)ccn1 [sorafenib] (partner dose 2 µM)	82.4
CCCCCCCCCCCCCCCCCCOP(=O)([O-])OC1CC[N+](C)(C)CC1 [Perifosine] + C[C@]1(O)C[C@@H](c2nc(-c3ccc4ccc(-c5ccccc5)nc4c3)c3c(N)nccn32)C1 [OSI906] (partner dose 2 µM)	96.2
CCCCCCCCCCCCCCCCCCOP(=O)([O-])OC1CC[N+](C)(C)CC1 [Perifosine] + NC1(c2ccc(-c3nc4ccn5c(=O)[nH]nc5c4cc3-c3ccccc3)cc2)CCC1 [MK2206] (partner dose 2 µM)	94.8
CCCCCCCCCCCCCCCCCCOP(=O)([O-])OC1CC[N+](C)(C)CC1 [Perifosine] + O=c1[nH]nc(Sc2ncc([N+](=O)[O-])s2)n1-c1ccc2c(c1)OCCO2 [BI78D3] (partner dose 1 µM)	88.4
C[C@@H](N)c1ccc(C(=O)Nc2ccnc3[nH]ccc23)cc1 + NC1(c2ccc(-c3nc4ccn5c(=O)[nH]nc5c4cc3-c3ccccc3)cc2)CCC1 [MK2206] (partner dose 2 µM)	95
CCCCCCCCCCCCCCCCCCOP(=O)([O-])OC1CC[N+](C)(C)CC1 [Perifosine] + Cc1cn(-c2cc(NC(=O)c3ccc(C)c(Nc4nccc(-c5cccnc5)n4)c3)cc(C(F)(F)F)c2)cn1 [nilotinib] (partner dose 1 µM)	111
Cn1sc(=O)n(Cc2ccccc2)c1=O + CN(c1ncccc1CNc1nc(Nc2ccc3c(c2)CC(=O)N3)ncc1C(F)(F)F)S(C)(=O)=O [PF562271] (partner dose 0.4 µM)	101
C[C@@H](N)c1ccc(C(=O)Nc2ccnc3[nH]ccc23)cc1 + C=C(c1ccc(C(=O)O)cc1)c1cc2c(cc1C)C(C)(C)CCC2(C)C [Bexarotene] (partner dose 10 µM)	86.7
CCCCCCCCCCCCCCCCCCOP(=O)([O-])OC1CC[N+](C)(C)CC1 [Perifosine] + Cc1cc(Nc2cc(N3CCN(C)CC3)nc(/C=C/c3ccccc3)n2)n[nH]1 [ENMD2076] (partner dose 0.2 µM)	86.3
C[C@@H](N)c1ccc(C(=O)Nc2ccnc3[nH]ccc23)cc1 + CN(NC(=O)CC(=O)NN(C)C(=S)c1ccccc1)C(=S)c1ccccc1 [STA4783] (partner dose 0.03 µM)	93
Cn1sc(=O)n(Cc2ccccc2)c1=O + COc1cc(Nc2ncc(F)c(Nc3ccc4c(n3)NC(=O)C(C)(C)O4)n2)cc(OC)c1OC [Tamatinib] (partner dose 2 µM)	86.6
CCCCCCCCCCCCCCCCCCOP(=O)([O-])OC1CC[N+](C)(C)CC1 [Perifosine] + OCc1c[nH]c2ccccc12 [Indole-3-carbinol] (partner dose 4 µM)	88.4
C[C@@H](N)c1ccc(C(=O)Nc2ccnc3[nH]ccc23)cc1 + CS(=O)(=O)CCNCc1ccc(-c2ccc3ncnc(Nc4ccc(OCc5cccc(F)c5)c(Cl)c4)c3c2)o1 [lapatinib] (partner dose 4 µM)	93.1
Cn1sc(=O)n(Cc2ccccc2)c1=O + O=C(O)c1ccc(-c2c[nH]c3ncc(-c4ccccc4)cc23)cc1C1CCCC1 [GSK650394] (partner dose 0.8 µM)	96
Cn1sc(=O)n(Cc2ccccc2)c1=O + Cn1nnc2c(C(N)=O)ncn2c1=O [temozolomide] (partner dose 10 µM)	95.8
